Experimental data from the supplement of paper PMC8728848.
The other results are listed elsewhere or left out.

What was measured:
Assay in all cases: glycan array binding signal (z-score within array); higher = stronger binding
Conditions in all cases: glycan notation: IUPAC condensed, linker removed
[1] = target: Neu5Ac(a2-6)GlcNAc(b1-4)GlcNAc(b1-4)GlcNAc
Outline: (§1)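 Glycan array data were curated from 3228 arrays in the Consortium for Functional Glycomics database and kept only where the protein sequence was available. Glycan names were converted to IUPAC-condensed notation, and columns mapping to the same glycan were averaged. The binding signal is a within-array Z-score, averaged across arrays of the same protein sequence at different concentrations or buffers and across linkers. Negative Z-scores can be read as non-binding.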

Neu5Ac(a2-8)Neu5Ac = target: Neu5Ac(a2-8)Neu5Ac
Outline: as §1

[2] = target: Neu5Ac(a2-8)Neu5Ac(a2-3)Gal(b1-3)GalNAc(b1-4)[Neu5Ac(a2-3)]Gal(b1-4)Glc
Outline: as §1

[3] = target: Neu5Ac(a2-8)Neu5Ac(a2-3)Gal(b1-3)GalNAc(b1-4)[Neu5Ac(a2-8)Neu5Ac(a2-3)]Gal(b1-4)Glc
Outline: as §1

[4] = target: Neu5Ac(a2-8)Neu5Ac(a2-3)Gal(b1-4)Glc
Outline: as §1

[5] = target: Neu5Ac(a2-8)Neu5Ac(a2-3)Gal(b1-4)GlcNAc
Outline: as §1

[6] = target: Neu5Ac(a2-8)Neu5Ac(a2-3)[Gal(b1-3)GalNAc(b1-4)]Gal(b1-4)Glc
Outline: as §1

[7] = target: Neu5Ac(a2-8)Neu5Ac(a2-3)[GalNAc(b1-4)]Gal(b1-4)Glc
Outline: as §1

[8] = target: Neu5Ac(a2-8)Neu5Ac(a2-8)Neu5Ac
Outline: as §1

[9] = target: Neu5Ac(a2-8)Neu5Ac(a2-8)Neu5Ac(a2-3)Gal(b1-4)Glc
Outline: as §1

[10] = target: Neu5Ac(a2-8)Neu5Ac(a2-8)Neu5Ac(a2-3)[Gal(b1-3)GalNAc(b1-4)]Gal(b1-4)Glc
Outline: as §1

[11] = target: Neu5Ac(a2-8)Neu5Ac(a2-8)Neu5Ac(a2-3)[GalNAc(b1-4)]Gal(b1-4)Glc
Outline: as §1

[12] = target: Neu5Ac(a2-8)Neu5Ac(a2-8)Neu5Ac(a2-8)Neu5Ac(a2-3)[GalNAc(b1-4)]Gal(b1-4)Glc
Outline: as §1

[13] = target: Neu5Ac(a2-8)Neu5Gc(a2-3)Gal(b1-4)GlcNAc
Outline: as §1

[14] = target: Neu5Ac(b2-6)Gal(b1-4)GlcNAc
Outline: as §1

Neu5Ac(b2-6)GalNAc = target: Neu5Ac(b2-6)GalNAc
Outline: as §1

[15] = target: Neu5Ac9Ac(a2-3)Gal(b1-3)GlcNAc
Outline: as §1

[16] = target: Neu5Ac9Ac(a2-3)Gal(b1-4)GlcNAc
Outline: as §1

[17] = target: Neu5Ac9Ac(a2-6)Gal(b1-4)GlcNAc
Outline: as §1

[18] = target: Neu5Gc(a2-3)Gal(b1-3)GlcNAc
Outline: as §1

[19] = target: Neu5Gc(a2-3)Gal(b1-3)[Fuc(a1-4)]GlcNAc
Outline: as §1

Neu5Gc(a2-3)Gal(b1-4)Glc = target: Neu5Gc(a2-3)Gal(b1-4)Glc
Outline: as §1

[20] = target: Neu5Gc(a2-3)Gal(b1-4)GlcNAc
Outline: as §1

[21] = target: Neu5Gc(a2-3)Gal(b1-4)GlcNAc(b1-3)Gal(b1-4)GlcNAc(b1-2)Man(a1-3)[Neu5Gc(a2-3)Gal(b1-4)GlcNAc(b1-3)Gal(b1-4)GlcNAc(b1-2)Man(a1-6)]Man(b1-4)GlcNAc(b1-4)GlcNAc
Outline: as §1

[22] = target: Neu5Gc(a2-3)Gal(b1-4)[Fuc(a1-3)]GlcNAc
Outline: as §1

[23] = target: Neu5Gc(a2-6)Gal(b1-4)GlcNAc
Outline: as §1

Neu5Gc(a2-6)GalNAc = target: Neu5Gc(a2-6)GalNAc
Outline: as §1

[24] = target: Neu5Gc(a2-8)Neu5Ac(a2-3)Gal(b1-4)GlcNAc
Outline: as §1

[25] = target: Neu5Gc(a2-8)Neu5Gc(a2-3)Gal(b1-4)GlcNAc
Outline: as §1

[26] = target: Neu5Gc(a2-8)Neu5Gc(a2-3)Gal(b1-4)GlcNAc(b1-3)Gal(b1-4)GlcNAc
Outline: as §1

[27] = target: Neu5Gc(a2-8)Neu5Gc(a2-6)Gal(b1-4)GlcNAc
Outline: as §1

[28] = target: Neu5Gc(b2-6)Gal(b1-4)GlcNAc
Outline: as §1

B1: EPL1 (Trichoderma atroviride), A0PCX2 (protein)
chain: MQLSNLFKLALFTAAVSADTVSYDTGYDDASRSLTVVSCSDGTNGLITRYHWQTQGQIPRFPYIGGAQAVAGWNSPNCGTCWKLTYSGKTIYVLAIDHTAAGFNIGLDAMNALTNGNAVALGRVSATASQVAVSNCGL
glycan array binding signal (z-score) [1]: -0.416 | glycan array binding signal (z-score) (Neu5Ac(a2-8)Neu5Ac): -0.319 | glycan array binding signal (z-score) [2]: -0.378 | glycan array binding signal (z-score) [3]: 0.216 | glycan array binding signal (z-score) [4]: -0.383 | glycan array binding signal (z-score) [5]: -0.041 | glycan array binding signal (z-score) [6]: -0.002 | glycan array binding signal (z-score) [7]: 0.213 | glycan array binding signal (z-score) [8]: -0.195 | glycan array binding signal (z-score) [9]: -0.013 | glycan array binding signal (z-score) [10]: -0.047 | glycan array binding signal (z-score) [11]: -0.275 | glycan array binding signal (z-score) [12]: -0.288 | glycan array binding signal (z-score) [13]: -0.39 | glycan array binding signal (z-score) [14]: -0.294 | glycan array binding signal (z-score) (Neu5Ac(b2-6)GalNAc): -0.299 | glycan array binding signal (z-score) [15]: -0.341 | glycan array binding signal (z-score) [16]: 0.319 | glycan array binding signal (z-score) [17]: 0.049 | glycan array binding signal (z-score) [18]: -0.09 | glycan array binding signal (z-score) [19]: -0.09 | glycan array binding signal (z-score) (Neu5Gc(a2-3)Gal(b1-4)Glc): -0.246 | glycan array binding signal (z-score) [20]: -0.074 | glycan array binding signal (z-score) [21]: 0.362 | glycan array binding signal (z-score) [22]: -0.169 | glycan array binding signal (z-score) [23]: 0.038 | glycan array binding signal (z-score) (Neu5Gc(a2-6)GalNAc): -0.456 | glycan array binding signal (z-score) [24]: -0.344 | glycan array binding signal (z-score) [25]: -0.145 | glycan array binding signal (z-score) [26]: -0.497 | glycan array binding signal (z-score) [27]: -0.247 | glycan array binding signal (z-score) [28]: -0.242
